# Measurements from publication PMC12136788.
# Some of the results follow.
# B1: chr6:4954605:4954706:+|3pUTR|ENSG00000153046|msi1|total|mutant (ssRNA)
# RNA: GGGAGUUCUACAGUCCGACGAUCGGAUAAAUACUUCUGAUGAAAAAUCCGCUGAGGAGCAUACCCCAAACCAGACAUAUGCUCCGGAUUCAUGCUGAGAUAUCAAUUGGUUUCCCCUUCUUUUUAAAAUACGUCCAGUUCUUACAACAGAGGAUUGAGCAUCA
# B2: ENSG00000198589:be:win_7351|CDS|ENSG00000198589|bound_else_gene|NA|bound_elsewhere_windowed (ssRNA)
# RNA: GGGAGUUCUACAGUCCGACGAUCGUGUUGAGAGAGGCUGUUGAAGCUCAAAUCCGAAGUUUUGGACAGACUCCUUCUCAACUACUCAUAGAGCCCCAUCCUCCCAGAGGUUCUGCCAUGCAAGUGAGUCCAUUGAUGUUCACACAACAGAGGAUUGAGCAUCA
# B3: chr4:68310386:68314098:-|three_prime_utr|ENSG00000083896|control|control|control (ssRNA)
# RNA: GGGAGUUCUACAGUCCGACGAUCGCACUGAUUGUUUAAAGAUACAAAAAAUCUUGUAUUUUUUUUUUGUGUGUGUUUACAAGUAGUAAAUUUAUUUUCAGCUGUCUGCCUAUGAAGUUCAUUGUGUAGAAGGAUUUAUUAUGACAACAGAGGAUUGAGCAUCA
# B4: ENSG00000156853:stop:overlap|stop_codon|ENSG00000156853|stop_codon|NA|stop_codon (ssRNA)
# RNA: GGGAGUUCUACAGUCCGACGAUCCCCCAAACUGUAGCCCUAGAUCUGCUAUCGGGGGCUCCAGUCAGAGGGGCAACGCCCAUUAGAAGGGGAAGGACUGCCUACGUUCAUUUCAUUUUAUGGAGGGUCCCAGAAAAGGGAAGGCAACAGAGGAUUGAGCAUCA
# B5: chr17:35577220:35577322:-|CDS|ENSG00000108733|unk|FALSE|unique (ssRNA)
# RNA: GGGAGUUCUACAGUCCGACGAUCUCUAUUAUGUUCCUGGUUCUUCUUCCCUAUCUGAAAGUGAAGCUGGAGAAGCUGGUUUCUAGCCUGAGAGAAGAGGAUGAAUAUUCUAUUCAUCCCCCUUCUUCCCGCUGGAAACGAUUUCAACAGAGGAUUGAGCAUCA
# B6: chr3:48621462:48621756:-|CDS|ENSG00000183396|control|control|control (ssRNA)
# RNA: GGGAGUUCUACAGUCCGACGAUCUACCAGGUGGGGCUGGACUUGCAGCCCUGGGGGUGUCAGCCAAAGAGUGUGGAGGGCUGUAGGGGUGGCCUGAGCUGUCCUGGCUACUGGCUGGGCCCUGGAGCAAGCCGCAUCUACCCCCAACAGAGGAUUGAGCAUCA
# B7: chr12:21491601:21491717:-|CDS|ENSG00000004700|unk|FALSE|unique (ssRNA)
# RNA: GGGAGUUCUACAGUCCGACGAUCGCUGCCUCCCAUAGCUCUAACUGAGGAACUGGAUUCUAUAACCAGUGAGCUACAUGCAGUAGAAAUUCAAAUUCAAGAACUUACGGAAAGGCAACAAGAGCUUAUUCAGAAAAAAAAAGUCAACAGAGGAUUGAGCAUCA
# B8: chr7:107760707:107760808:+|3pUTR|ENSG00000105879|unk|FALSE|unique (ssRNA)
# RNA: GGGAGUUCUACAGUCCGACGAUCAAACAUGAAAUAUGUAGUAUGCAGAUAUCAUUUAUUAGAUAGUUUGUAGUGUAUACAUUUAGAACAUACUUCUUUUGACAAAGGGUGAUCUGAUUGCUAAUUUACCAUUUUAUUCUGUCACAACAGAGGAUUGAGCAUCA
# B9: chr6:77462233:77463403:-|CDS|ENSG00000135312|control|control|control (ssRNA)
# RNA: GGGAGUUCUACAGUCCGACGAUCACCCUUCUUCAUCAUCUCCCUAGUGAUGCCUAUCUGCAAAGAUGCCUGCUGGUUCCACCUAGCCAUCUUUGACUUCUUCACAUGGCUGGGCUAUCUCAACUCCCUCAUCAACCCCAUAAUCAACAGAGGAUUGAGCAUCA
# B10: chr9:19276226:19276327:+|CDS|ENSG00000137145|unk|FALSE|unique (ssRNA)
# RNA: GGGAGUUCUACAGUCCGACGAUCCUUUGUCGUAGCUGGUCUCACUGACACAUCUACUCUUUUGGAUCAAGAAAUAAAUCGUUUAGAUACUAAGUCAACUGGACCUAAAGCUCCAAUUACAGACAUUGCCAUUAUUAUCAAAUCCAACAGAGGAUUGAGCAUCA
# B11: chr21:14485227:14485911:-|three_prime_utr|ENSG00000155307|control|control|control (ssRNA)
# RNA: GGGAGUUCUACAGUCCGACGAUCCCCAACUAUAUAUCUACAGAUGCAUUCCAUUUUAACUCUUCUUGAGCUAAAACGUCAAAUAGGAGAGGAAGAUAAGAUAAAUAUUUGUAAAUAAAACCUAAAGUUUAAAUGUUUUAAUCUCAACAGAGGAUUGAGCAUCA
# B12: chr5:36035020:36035974:-|three_prime_utr|ENSG00000168671|control|control|control (ssRNA)
# RNA: GGGAGUUCUACAGUCCGACGAUCAGACAUAAGGCCAGGUGCAGCCUUGGCGGGGUCUGUUUGGUGGGCGAUGUCACCAUUUCUAGGGAGCUUCCCACUAGUUCUGGCAGCCCCAUUCUCUAGUCCUUCUAGUUAUCUCCUGUUCAACAGAGGAUUGAGCAUCA
# B13: ENSG00000227500:stop:overlap|stop_codon|ENSG00000227500|stop_codon|NA|stop_codon (ssRNA)
# RNA: GGGAGUUCUACAGUCCGACGAUCGCAACAGCCUGCCCGAGUACCCCACUGUGCCCAGCUACCCGGGCAGUGGCCAGUGGCCUUAGAGGGAGCCUGCCCUGCCCCCACCGCCCACCACCUCCUCCCCUUCAUUCCUGCUGCUACCAACAGAGGAUUGAGCAUCA
# B14: chr6:132328510:132328611:-|CDS|ENSG00000079931|msi1|total|mutant (ssRNA)
# RNA: GGGAGUUCUACAGUCCGACGAUCUUGUGGGAUGUUGCCGGGUGGUCUUAUUUAUUGUGUCCUCCCUCUCAUUUAUGUUCGUGCCGGUUGAGCCAGUGAUACAGAGAGGCCAUGAGAGUCUGGUGCACCACAUCCUGCUCUAUCCAACAGAGGAUUGAGCAUCA
# B15: chr1:234405902:234406099:-|CDS|ENSG00000059588|control|control|control (ssRNA)
# RNA: GGGAGUUCUACAGUCCGACGAUCCCUUAUAGUUGUGCUGCAGUGGUGUUUCAAUCACAAUUUUAGUGUUCGACUGUAUGCUUUAGUUGCUCUUAAGAAACUCUGGACUGUGUGUAAAGUGUUAAGUGUUGAAGAAUUUGAUGCCAACAGAGGAUUGAGCAUCA
# B16: chr13:46895483:46895906:-|CDS|ENSG00000102468|control|control|control (ssRNA)
# RNA: GGGAGUUCUACAGUCCGACGAUCAGUGUCCCUAGAGAAAAAGCUGCAGAAUGCCACCAACUAUUUCCUGAUGUCACUUGCCAUAGCUGAUAUGCUGCUGGGUUUCCUUGUCAUGCCCGUGUCCAUGUUAACCAUCCUGUAUGGCAACAGAGGAUUGAGCAUCA
# B17: chr15:30400561:30403739:-|three_prime_utr|ENSG00000186399|control|control|control (ssRNA)
# RNA: GGGAGUUCUACAGUCCGACGAUCAUAAGAAACCAAGUUAUGGGGUUAAUCUCCUACACAAUUCAUUUACUUCCUUUGAAUGUUAGACUCACUCAUGAUUAUUUGUGUUUCUAAUUUAUAGUUUAAGUUUAUUUGUAAAAAGUUCAACAGAGGAUUGAGCAUCA
# B18: chr22:41245667:41245769:-|3pUTR|ENSG00000100401|msi1|total|mutant (ssRNA)
# RNA: GGGAGUUCUACAGUCCGACGAUCCAAUGUCCGAGCUGCAUCUGGACGCUGCUCUUAAAGGACCUCCUGGGGCAGGGGAGCGGCCGGGUCUGGACUGGGCAGAUGCUGUAUGACCUCCCUGAGCACCCGUGACUGCCCCAUGCUCAACAGAGGAUUGAGCAUCA
# B19: chr11:2397021:2397122:+|3pUTR|ENSG00000110651|msi1|FALSE|unique (ssRNA)
# RNA: GGGAGUUCUACAGUCCGACGAUCUUGGGGUUUUGUUUUUGUUCUGAACUUUCCUGUUACCUUUUCAGGGCUGACGUCACAUGUAGGUGGCGUGUAUGAGUGGAGACGGGCCUGGGUCUUGGGGACUGGAGGGCAGGGGUCCUUCAACAGAGGAUUGAGCAUCA
# B20: chr12:64147824:64147925:+|3pUTR|ENSG00000196935|unk|total|mutant (ssRNA)
# RNA: GGGAGUUCUACAGUCCGACGAUCCAUCUCUGUGGUGUCUUUGUUCCUUUCCUUUCAUUCAUCACUACUUUCUCCUUGACAGCCCGCUUGCAUUAAAUAAUGUGAAACUUUUACCUUUAAAAUAUUUUUUUAUCUCACUUUCAUCAACAGAGGAUUGAGCAUCA
# B21: ENSG00000070961:be:win_1301|CDS|ENSG00000070961|bound_else_gene|NA|bound_elsewhere_windowed (ssRNA)
# RNA: GGGAGUUCUACAGUCCGACGAUCGUCUUCCACUUGCAGUCACGAUCUCACUGGCUUAUUCAGUCAAAAAAAUGAUGAAAGAUAAUAACUUAGUAAGGCAUCUGGAUGCUUGUGAAACCAUGGGAAAUGCUACAGCUAUUUGUUCAACAGAGGAUUGAGCAUCA
# B22: chr12:76028505:76028606:-|3pUTR|ENSG00000139289|msi1|FALSE|unique (ssRNA)
# RNA: GGGAGUUCUACAGUCCGACGAUCAAGUCUUGGUCAGUAUUUUUCCAGCAUUUAAAUUGAAACGGUCAGUAUUAGACCACUGCUAGGUUAUGUAGUCAAGAAAUAAAAAUAGAAUUACAUGCUACAGAUGUCUUUAUUCUCCUUCAACAGAGGAUUGAGCAUCA
# Target: MSI1 full-length (mouse, UniProt Q61474 1-362)
# Sequence of UniProt Q61474 (Q61474 whole entry): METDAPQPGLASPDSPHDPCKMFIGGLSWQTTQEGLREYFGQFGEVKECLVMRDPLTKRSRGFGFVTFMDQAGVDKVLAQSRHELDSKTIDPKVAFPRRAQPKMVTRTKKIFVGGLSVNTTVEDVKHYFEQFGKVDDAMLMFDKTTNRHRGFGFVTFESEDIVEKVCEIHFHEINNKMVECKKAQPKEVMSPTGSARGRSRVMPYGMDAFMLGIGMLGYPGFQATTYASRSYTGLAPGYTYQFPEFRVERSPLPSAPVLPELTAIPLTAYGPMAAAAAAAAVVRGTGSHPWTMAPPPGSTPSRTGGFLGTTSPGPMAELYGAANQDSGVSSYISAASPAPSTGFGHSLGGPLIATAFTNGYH
# Experiment: nsRBNS (natural sequence RNA bind-n-seq); RBNS binding buffer (assumed for nsRBNS): 25 mM Tris pH 7.5, 150 mM KCl, 3 mM MgCl2, 0.01% Triton X-100, 500 ug/ml BSA, 20 U/ml SUPERase-In, 4 C; UNK is unkempt and MSI1 is Musashi-1; names of the RNAs are library labels; protein concentration not given here; high values mean tight binding
row,Binder,binding signal
1,B1,0.346 enrichment R
2,B2,0.404 enrichment R
3,B3,1.55 enrichment R
4,B4,1.01 enrichment R
5,B5,0.266 enrichment R
6,B6,0.472 enrichment R
7,B7,0.401 enrichment R
8,B8,56.7 enrichment R
9,B9,0.7 enrichment R
10,B10,0.992 enrichment R
11,B11,1.2 enrichment R
12,B12,1.29 enrichment R
13,B13,0.675 enrichment R
14,B14,0.479 enrichment R
15,B15,0.964 enrichment R
16,B16,0.65 enrichment R
17,B17,6.05 enrichment R
18,B18,0.341 enrichment R
19,B19,1.88 enrichment R
20,B20,2.32 enrichment R
21,B21,0.636 enrichment R
22,B22,1.98 enrichment R
